Measured values as given in PubChem BioAssay AID588855 (National Center for Advancing Translational Sciences (NCATS), 2011).
Out of some 410,000 compounds screened, about 5,000 (1.2%) were called active. Inconclusive means that the source gave no clear call. Such entries were picked first, then a sample of the others. The call rests on the fitted dose curve; in most records, active means well fitted inhibition curve with a large enough effect; inconclusive means small, poorly fitted or top-dose-only effect; inactive means no such curve, though single readings can be large or run the other way. Potencies of inconclusive entries are doubtful fits and often do not repeat.

assay: qHTS for Inhibitors of TGF-b; settings: HepG2 CAGA-GFP TGF-b/SMAD3 reporter, GFP fluorescence, 18 h, TGF-beta stimulated, 500 pg/mL final; series mostly up to 46.1 µM; activity, negative = inhibition: at the top concentration; further: nearly all actives have a fitted effect of over 65% in size
Outline: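 Using HEPG2 CAGA-GFP reporter cells at 1000 cells/well, we pinned test compounds, stimulated with recombinant TGF-beta (500 pg/mL final) and measured total well GFP after 18 h.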
On the % scale 0 is the no-effect control and ±100 the full control effect; potency means the concentration at half of the fitted maximal effect; tags describe the fitted curve by direction and shape.

| SMILES | Potency | activity, negative = inhibition |
| --- | --- | --- |
| Cc1nnc(N/N=C\c2ccc(-c3cccc(C(=O)O)c3)o2)n1N | active: 10 µM | – |
| CCC(C(=O)NCCCN1CC(C)CC(C)C1)n1nc(C)c2sc3ccccc3c2c1=O (stereo not given) | inconclusive: 15.8 µM [inhibitor, partial curve, poor fit] | – |
| Cc1ccc(OCCCc2c(C)n[nH]c2C)cc1 | inconclusive: 35.5 µM [inhibitor, single point] | – |
| CS(=O)(=O)c1ccc(Cl)c(NC(=O)c2cccc(N3C(=O)CCC3=O)c2)c1 | inconclusive: 35.5 µM [inhibitor, single point] | – |
| CCCCC(=O)Nc1nc(-c2ccc(S(=O)(=O)N3CCOCC3)cc2)cs1 | inconclusive: 15.8 µM [inhibitor, single point] | – |
| COc1ccc(OC)c(S(=O)(=O)Nc2ccc3c(c2)N(C(C)=O)CCC3)c1 | inconclusive: 35.5 µM [inhibitor, single point] | – |
| CN(C(=O)CS(=O)(=O)c1cccc(Cl)c1)c1ccccc1 | inconclusive: 15.8 µM [inhibitor, single point] | – |
| Cc1cc2c(NCC(C)O)ncnc2s1 (stereo not given) | inconclusive: 3.98 µM [inhibitor, partial curve] | – |
| Cc1ccc(NC(=O)c2sc3nc(N)c(C#N)cc3c2N)cc1 | inconclusive: 5.01 µM [inhibitor, full curve] | – |
| CCCCCn1c(C)c2c(OCC)cccc(=O)c2c1C | – | inactive: -28.3% |
| COc1ccc(C(=O)NNC(=O)Cc2nc3ccccc3n2C)cc1 | inconclusive: 0.112 µM [inhibitor, full curve, poor fit] | – |
| Brc1ccc(-c2cn3ccccc3n2)s1 | inconclusive: 3.55 µM [inhibitor, partial curve, poor fit] | – |
| CCCCCCCCCn1cc(C(C)=O)c(=O)[nH]c1=O | inconclusive: 0.282 µM [inhibitor, full curve, poor fit] | – |
| COC(=O)c1ccc(C)c(-n2c(=O)n(Cc3ccccc3)c(=O)c3[nH]cnc32)c1 | – | inactive: 0% |
| CCOC(=O)c1c(C)[nH]c(C)c1S(=O)(=O)N1CCCC(C(=O)N2CCN(c3cc(C)ccc3C)CC2)C1 (stereo not given) | inconclusive: 17.8 µM [inhibitor, partial curve, poor fit] | – |
| COc1ccc(OC)c(-c2c3c([nH]c(=S)c2C#N)CCCC3)c1 | inconclusive: 35.5 µM [inhibitor, single point] | – |
| C=CCSc1nc2c(c(=O)[nH]c(=O)n2C)n1CC | inconclusive: 2.82 µM [inhibitor, single point] | – |
| COc1cc2c(cc1NC(=O)C(c1ccccc1)c1ccccc1)CCCC2 | inconclusive: 35.5 µM [inhibitor, single point] | – |
| Cc1cc(-c2ccccc2)oc(=O)c1NC(=O)c1ccccc1 | inconclusive: 5.62 µM [inhibitor, single point] | – |
| S=C(NCCCc1cnc[nH]1)NCCCN(Cc1ccc(Cl)cc1)c1cc(-c2ccccc2)ccn1 | inconclusive: 35.5 µM [inhibitor, single point] | – |
| CCc1ccc(-n2nc(C)c3c(C)cc(=O)n(CC(=O)Nc4ccc(OC)c(OC)c4)c32)cc1 | – | inactive: -0.657% |
| c1ccc2c(-c3cncc4ccccc34)cncc2c1 | – | inactive: -4.53% |
| COc1ccccc1/C=C/C(=O)N1CCc2cc(OC)c(OC)cc2C1C (stereo not given) | active: 14.1 µM | – |

| SMILES | Potency | activity, negative = inhibition |
| --- | --- | --- |
| O=C(COc1ccc(C(=O)c2ccccc2)cc1)NC1CCCCCC1 | inconclusive: 14.1 µM [inhibitor, single point] | – |
| C/C(=N/O)c1no[n+]([O-])c1/C(C)=N\O | – | inactive: 16.2% |
| COC(=O)[C@@H]1CCCN1S(=O)(=O)Cc1ccccc1 | – | inactive: -4.67% |
| Nc1nc(C(F)(F)F)c(Br)c(=O)n1N | – | inactive: 15.8% |
| Cc1cc2c(cc1C)N(C(=O)CCl)CC(=O)N2 | inconclusive: 35.5 µM [inhibitor, single point] | – |
| Cn1c(=O)c2c(nc(NC3CCCCC3)n2Cc2ccccc2)n(C)c1=O | inconclusive: 35.5 µM [inhibitor, single point] | – |
| Cc1cc(C)c(NC(=O)CSc2nc3ccc(N4C(=O)c5ccccc5C4=O)cc3s2)c(C)c1 | inconclusive: 5.62 µM [inhibitor, single point] | – |
| C1CC(=NN=C2CCSCC2)CCS1 | – | inactive: -1.12% |
| CCOc1ccccc1CNC(=O)CCCN1C(=O)CCn2nc(-c3cccn3C)cc21 | inconclusive: 11.2 µM [inhibitor, partial curve, poor fit] | – |
| COc1ccccc1N1CCN(C(=O)C2CC2)CC1 | – | inactive: -4.46% |
| COc1cc(C#Cc2c(-c3cncn3C)n(C)c3ccc(-c4ccc(OC)nc4)cc23)cc(OC)c1 | inconclusive: 35.5 µM [inhibitor, single point] | – |
| c1cncc(-c2nc3cc4ccccc4cc3[nH]2)c1 | inconclusive: 10 µM [inhibitor, partial curve, poor fit] | – |
| Cc1ccc(C(=O)N/C(=C\c2cccs2)c2nc3ccccc3[nH]2)cc1 | inconclusive: 35.5 µM [inhibitor, single point] | – |
| COC(=O)C1CCCN1S(=O)(=O)c1ccc2ccccc2c1 (stereo not given) | – | inactive: 13.3% |
| Cc1ccc(-c2ccc(=O)n(C(C)C(=O)Nc3ccccc3Cl)n2)cc1C (stereo not given) | inconclusive: 35.5 µM [inhibitor, single point] | – |
| CC1CCc2nc3ncn(CC(=O)Nc4cccc(C#N)c4)c(=O)c3cc2C1 (stereo not given) | – | inactive: -3.92% |
| CC(C)c1ccc(C2(C)NC(=O)N(CC(=O)NC3CCCC(C)C3C)C2=O)cc1 (stereo not given) | inconclusive: 14.1 µM [inhibitor, single point] | – |
| COc1cccc(N(C(=O)Cn2nnc(-c3ccc(F)cc3)n2)C(C(=O)NCC2CCCO2)c2ccc(Cl)cc2)c1 (stereo not given) | – | inactive: -16.1% |
| COc1ccccc1-c1nn(CCC(=O)Nc2cccc(C(C)=O)c2)c2nc(C)cc(C)c12 | – | inactive: -23.9% |
| COC(=O)c1ccc(Cn2c(SCc3cccc(C)c3)nc3ccncc32)cc1 | inconclusive: 25.1 µM [inhibitor, single point] | – |
| CCOC(=O)N1CCN(C(=O)c2ccccc2NC(C)=O)CC1 | – | inactive: 6.68% |
| C/C(=N/Nc1nc(C)cc(-c2ccccc2)n1)c1ccco1 | inconclusive: 35.5 µM [inhibitor, single point] | – |
